Among all 48,000 compounds or so, about 1,200 (2.5%) were called active. About 2% were inconclusive and are not listed.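 How the source made its calls: active means activation of at least 60% and not above a set upper limit (about 1 call in 100 departs from these limits); inconclusive means activation of 40% to 60%, or above that upper limit; inactive means activation under 40%.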 Some of the results follow.

Chain of UniProt O75388 (O75388 whole entry, looked up): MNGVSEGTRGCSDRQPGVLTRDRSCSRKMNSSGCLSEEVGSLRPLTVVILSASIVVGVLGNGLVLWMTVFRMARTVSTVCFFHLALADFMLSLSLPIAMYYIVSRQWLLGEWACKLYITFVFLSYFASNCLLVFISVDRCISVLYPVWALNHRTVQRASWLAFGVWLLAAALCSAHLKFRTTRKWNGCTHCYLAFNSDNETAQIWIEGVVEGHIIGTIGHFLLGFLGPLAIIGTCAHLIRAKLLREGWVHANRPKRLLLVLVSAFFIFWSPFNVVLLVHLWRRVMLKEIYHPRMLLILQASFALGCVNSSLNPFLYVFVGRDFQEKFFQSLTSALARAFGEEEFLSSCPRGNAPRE

The target in this test is Probable G-protein coupled receptor 32 (Homo sapiens) (UniProt O75388). Nature of the test: qHTS for Agonists of Human Resolvin D1 Receptor DRV1. Further: 0% is about no effect. The conditions noted are these: CHO-K1 GPR32 beta-arrestin PathHunter luminescence, 90 min; at 76.9 µM; stronger effect = higher value; zero percent set by DMSO-only wells. A digest of the protocol:
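Engineered CHO-K1 line co-expressing GPR32-ProLink and EA-beta-arrestin. Compound treatment lasted 90 min at 37 °C. Luminescence was recorded after 1 h with substrate at ambient temperature, relative to DMSO basal wells.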
As to `COc1ccc(-c2nc3ccccc3s2)cc1NC(=O)c1cccc(F)c1`, the activation is inactive: -9.64%. As for `Cc1ccc(-n2nc(C)c3c(C)c(CCC(=O)NCc4ccc(Cl)cc4)c(C)nc32)cc1`, the activation is inactive: -18.7%. Under `CCc1cccc(C)c1Nc1c(-c2ccc(N(C)C)cc2)nc2cnccn12` stands active: 92.5%; under `COc1cccc(CNC(=O)c2ccc3nc(CCc4ccccc4)oc3c2)c1OC`, inactive: 31.2%; under `CCOc1ccc(CNCCSc2nnnn2C)cc1`, inactive: -7.89%. The result for `CCc1ccc(C(=O)c2cn(CC(=O)Nc3cc(OC)cc(OC)c3)c3ccc(CC)cc3c2=O)cc1` reads inactive: 7.97%; that for `CC1CN(C(=O)N2CCC(C(=O)NCc3ccco3)CC2)c2ccccc2O1` (centres undefined), inactive: 2.67%; that for `O=C(Nc1nc2ccccc2n1CCOc1ccccc1Cl)c1ccccc1`, inactive: -8.25%. The result for `Cc1cccc(CN2C(=O)c3ccccc3Sc3ccc(C(=O)NCCCN4CCOCC4)cc32)c1` reads inactive: -21.4%; that for `CC1CCN(c2nc3ccccc3nc2C(F)(F)F)CC1`, inactive: -17.9%; that for `CCOc1cccc(C2c3c(oc4ccc(F)cc4c3=O)C(=O)N2c2cc(C)ccn2)c1` (centres undefined), inactive: -4.79%. Turning to `Cc1ccc2ncc(C(=O)c3ccc(C)c(C)c3)c(S(=O)(=O)c3ccccc3)c2c1`, the activation was inactive: -35.9%. The result for `CCN(CC)S(=O)(=O)c1nnc(NC(=O)c2ccc(C)cc2)s1` reads inactive: 31.8%. `CC1OC1P(=O)(O)O` (centres undefined): the activation is inactive: -14%. For `COc1ccccc1C1C(C(=O)Nc2ccccc2)=C(C)Nc2nc(-c3ccccc3)nn21` (centres undefined), the activation is inactive: 17.3%. In the case of `COc1ccccc1N1CCN(Cc2nc(-c3cc(OC)c(OC)c(OC)c3)no2)CC1`, the activation was inactive: -4.78%. Under `CC1CCCCN1CCCNC(=O)Cn1ncc2c3ccccc3n(Cc3ccccc3)c2c1=O` (centres undefined) stands inactive: -13.7%. The result for `CC(=O)N1CCc2cc(S(=O)(=O)NC(Cc3ccccc3)C(=O)Nc3cc(C)cc(C)c3)ccc21` (centres undefined) reads inactive: -12.5%. Under `Cc1ccc(NC(=O)CSc2nc3n[nH]c(C)c3c(=N)n2-c2ccccc2C)cc1C` stands inactive: 18.5%; under `CCN(Cc1ccccc1)C(=O)c1cn(-c2cccc(OC)c2)c(=O)c2ccccc12`, inactive: -18.1%; under `COc1ccc(CCN2C(=O)CN(C3CCCCCC3)C(=O)C2c2ccc(Cl)cc2)cc1OC` (centres undefined), inactive: -33.3%. Turning to `Cc1ccc(Cl)cc1N1CCN(C(=O)CCc2nnc3n(C)c(=O)c4ccccc4n23)CC1`, the activation was inactive: -3.06%.

For the compound `O=C(Cn1ncc2c3ccccc3n(Cc3ccccc3)c2c1=O)NCCCN1CCCCC1`, the activation was inactive: -4.07%. Under `O=C(O)c1ccc2c(c1)N(Cc1ccc(F)cc1)C(=O)c1ccccc1S2=O` (centres undefined) stands inactive: 5.27%; under `Cc1cc(NC(=O)c2cc(-c3ccc(F)cc3)on2)nn1Cc1ccc(Cl)cc1`, inactive: 45%. Take `COc1ccccc1CNS(=O)(=O)c1c(C)nc2sc(C)cn2c1=O`: the activation was inactive: 0.543%. Under `Cc1ccc(Cl)cc1NC(=O)c1cc(S(=O)(=O)N2CCOCC2)cn1C` stands inactive: -3.47%; under `CCCCN(C)C(=O)C1CCC(Cn2c(=O)[nH]c3ccsc3c2=O)CC1` (centres undefined), inactive: 25.6%; under `O=C(Cn1c(=O)c2cccn2c2ccc(F)cc21)Nc1cccc(F)c1`, inactive: -16.5%.

As for `COC(=O)c1cc(NC(=O)Cn2ncc3c([nH]c4ccccc43)c2=O)cc(C(=O)OC)c1`, the activation is inactive: 4.39%. The result for `CC1CCN(S(=O)(=O)c2ccc3c(c2)N(CC(=O)NCCN(C)C)C(=O)CS3)CC1` reads inactive: -4.89%; that for `O=C(NCCc1ccccc1)c1ccc2c(c1)CCN2S(=O)(=O)c1ccc(Cl)cc1`, inactive: 0.407%.

Turning to `Cc1ccc2c(CC(=O)Nc3ccc(S(=O)(=O)N4CCCC(C)C4)cc3)coc2c1` (centres undefined), the activation was inactive: -9.79%. On to `OC(c1ccccc1)c1nc2ccccc2n1Cc1c(F)cccc1Cl` (centres undefined), for which the activation is inactive: 45.8%.

Take `CCOc1ccc(-c2cc3c(=O)n(CC(=O)NCc4ccccc4)ccn3n2)cc1`: the activation was inactive: 11.7%. Take `Fc1ccc(-n2nc(-c3ccccc3)c3cnc4ccccc4c32)cc1Cl`: the activation is inactive: -0.611%. Regarding `Cc1oc2ncnc(N3CCOCC3)c2c1C(=O)Nc1ccc(Br)cc1F`, the activation was inactive: 16.1%. Under `COCCNC(=O)CSc1nc(-c2ccc(C)cc2)[nH]c1-c1ccc(OC)cc1` stands inactive: -32.5%. Under `O=C(CSc1nc(=O)n(Cc2ccccn2)c2c1CCC2)Nc1cccc(Cl)c1` stands inactive: 23.5%; under `CC(C)CCNC(=O)C1CCC(CNS(=O)(=O)c2cccc3nsnc23)CC1` (centres undefined), inactive: -7.26%.

Turning to `CCc1ccc(NC(=O)CN2C(C(=O)OC)=C(c3ccccc3)c3ccccc3S2(=O)=O)cc1`, the activation was inactive: -16.4%. Regarding `O=C(Nc1ccc(Cl)cc1F)c1cc(S(=O)(=O)NC2CCCCCC2)ccc1F`, the activation was inactive: -11.7%. Turning to `CCCc1nn2c(=O)cc(COC(=O)c3ccccc3NC(=O)c3ccc(OCC)cc3)nc2s1`, the activation was inactive: -10.1%.

Consider `Cc1cc(N2CCN(c3ccc(F)cc3)CC2)n2cnnc2n1`, for which the activation is inactive: -5.01%.

`COc1ccc(NC(=O)Cn2ccn(-c3ccc(C)c(C)c3)c(=O)c2=O)cc1Cl`: the activation is inactive: -8.77%. Under `Cc1ccc(-c2c3c(=O)n(C)c(=O)n(C)c3c3c(C)nc4ccccc4n23)cc1` stands inactive: -13.3%; under `Cc1ccccc1OCC(=O)Nc1ccccc1C(=O)OCc1cc(=O)n2nc(C3CC3)sc2n1`, inactive: 8.79%. Under `Cc1cccc(NC(=O)c2oc3ccccc3c2NC(=O)Cc2coc3cc(C)cc(C)c23)c1` stands inactive: 6.43%. The result for `Cc1cccc(-c2nc3cc(NC(=O)COc4ccccc4F)ccc3o2)c1` reads inactive: 13.1%; that for `Cc1ccc(C(=O)c2cn(Cc3ccccc3)c3ccccc3c2=O)cc1`, inactive: 15.2%; that for `COc1ccc(Cl)cc1NC(=O)CSc1nc(=O)[nH]c2c1CCC2`, inactive: -15.8%. As to `COC(=O)c1ccccc1NC(=O)Cn1c(=O)n(-c2ccc(C)cc2)c(=O)c2ccccc21`, the activation was inactive: -20.2%. Under `COc1ccc(OCC(=O)Nc2cc(-c3nc4ccccc4o3)ccc2Cl)cc1` stands inactive: 1.68%; under `COc1cc(Nc2nc3c(S(=O)(=O)c4cccc(Cl)c4)nnn3c3ccsc23)cc(OC)c1`, inactive: -1.41%.

Values taken from PubChem BioAssay AID1346428 (National Center for Advancing Translational Sciences (NCATS), 2018).
